# Test results as given in PMC4336329 (PLoS ONE, 2015).
# In all, about 310,000 compounds went through this assay and about 14,000 (4.5%) showed an effect of 50% or more. The effect is printed as a negative number. The list shows a part of the results.
# Molecular target: human ether-à-go-go-related gene (hERG) potassium channel (human, UniProt Q12809)
# Test: primary screen, population patch clamp on CHO cells stably expressing hERG
# 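Also: peak tail current of the secondary pulse compared with the same well before compound.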
# Chain of human ether-à-go-go-related gene (hERG) potassium channel (Q12809 whole entry, looked up): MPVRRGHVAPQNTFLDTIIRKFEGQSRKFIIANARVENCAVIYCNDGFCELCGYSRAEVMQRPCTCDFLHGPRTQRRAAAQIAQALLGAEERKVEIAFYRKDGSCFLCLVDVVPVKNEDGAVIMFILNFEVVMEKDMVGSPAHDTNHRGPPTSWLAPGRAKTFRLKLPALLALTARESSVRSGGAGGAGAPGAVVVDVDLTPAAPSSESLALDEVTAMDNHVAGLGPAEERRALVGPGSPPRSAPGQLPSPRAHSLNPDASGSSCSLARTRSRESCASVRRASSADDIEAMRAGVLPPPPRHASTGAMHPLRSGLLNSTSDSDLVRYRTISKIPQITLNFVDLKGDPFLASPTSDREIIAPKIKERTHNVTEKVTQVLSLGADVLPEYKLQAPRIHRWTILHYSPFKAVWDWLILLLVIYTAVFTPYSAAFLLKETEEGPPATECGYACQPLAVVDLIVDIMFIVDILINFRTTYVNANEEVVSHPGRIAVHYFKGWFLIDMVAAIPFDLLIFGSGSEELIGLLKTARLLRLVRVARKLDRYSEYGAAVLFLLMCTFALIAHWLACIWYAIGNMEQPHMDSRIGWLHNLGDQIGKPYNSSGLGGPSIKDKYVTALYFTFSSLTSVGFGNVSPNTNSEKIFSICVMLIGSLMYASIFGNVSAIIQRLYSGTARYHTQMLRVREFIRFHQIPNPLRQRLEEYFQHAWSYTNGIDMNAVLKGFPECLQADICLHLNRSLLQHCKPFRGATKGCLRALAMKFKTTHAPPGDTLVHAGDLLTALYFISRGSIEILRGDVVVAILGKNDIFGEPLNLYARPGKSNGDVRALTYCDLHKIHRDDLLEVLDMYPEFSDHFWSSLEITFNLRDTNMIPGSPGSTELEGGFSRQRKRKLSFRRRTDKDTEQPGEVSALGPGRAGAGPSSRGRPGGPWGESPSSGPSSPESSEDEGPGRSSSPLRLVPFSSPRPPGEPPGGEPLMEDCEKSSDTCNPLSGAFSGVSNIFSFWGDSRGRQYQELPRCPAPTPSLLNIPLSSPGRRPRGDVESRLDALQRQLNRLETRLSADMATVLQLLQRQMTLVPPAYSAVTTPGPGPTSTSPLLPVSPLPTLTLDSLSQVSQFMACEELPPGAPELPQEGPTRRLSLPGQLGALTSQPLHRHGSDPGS
row,Compound,"hERG current change (%, negative = inhibition) at 10uM"
1,Cc1ccc(S(=O)(=O)N2CCC(=O)N(C(COCc3ccc(Cl)cc3)Cc3ccccc3)CC2)cc1 (stereo not drawn),6.35%
2,Cc1ccc(C(C)C)cc1S(=O)(=O)NCc1cccnc1,2.11%
3,O=C(CN1CCCCCC1=O)N1CCN(S(=O)(=O)c2cccs2)CC1,16.1%
4,Cc1ccc2cc(CN(CC3CCCO3)C(=O)NC3CCCCC3)c(=O)[nH]c2c1C (stereo not drawn),-55.4%
5,Cc1ccc(C)c(NC(=O)Cn2cnc3c(oc4ccccc43)c2=O)c1,30%
6,COc1ccc(NC(=O)c2cc(OC)c(OC)cc2OC)c(S(=O)(=O)N2CCOCC2)c1,15%
7,O=C(CSc1ncnc2nc[nH]c12)Nc1nnc(SCc2ccc(Cl)c(Cl)c2)s1,11.8%
8,NC(=O)c1ccccc1N1CCCCC1,22.6%
9,CC1CN(C(=O)CCN2C(=O)c3ccccc3C2=O)CC(C)O1 (stereo not drawn),1.96%
10,C1CCC2=NCCCN2CC1,1.88%
11,COc1ccc(C(=O)CSc2nnc(CC(=O)Nc3ccccc3OC)n2C)cc1,-6.15%
12,Cc1cccn2c(=O)c3c(nc12)N1CCCCC1C1(C3)C(=O)N(C)C(=O)N(C)C1=O (stereo not drawn),-7.56%
13,CCN(C(=O)COC(=O)c1cc([N+](=O)[O-])ccc1N1CCOCC1)C1CCCCC1,-33.5%
14,CN(C(=O)CSc1nncn1-c1ccccc1)C1CCS(=O)(=O)C1 (stereo not drawn),4.65%
15,CC(=O)N(CC(C)(C)CC=C(C)C)c1ccccc1,9.08%
16,O=C(O)CN1C(=O)C(=O)N(Cc2c(F)cccc2Cl)C1=O,9.71%
17,CSCCC(NS(=O)(=O)c1ccccc1F)C(=O)NNC(=O)c1csc(N2CCOCC2)n1 (stereo not drawn),12.1%
18,COC(=O)c1sccc1NC(=O)c1ccccc1,12.3%
19,O=C(O)c1nn(CC(=O)N2CCN(c3ccccc3)CC2)c(=O)c2ccccc12,8.36%

row,Compound,"hERG current change (%, negative = inhibition) at 10uM"
1,O=C(Nc1ccccc1)C(Cc1cccs1)c1nn[nH]n1 (stereo not drawn),-0.965%
2,CCc1nnc(NC(=O)c2ccc(NS(=O)(=O)c3ccccc3)cc2)s1,-6.56%
3,CC12CC(NC(=O)N1CCc1ccccc1)c1cc(Cl)ccc1O2 (stereo not drawn),14.4%
4,Cc1cc(C)nc(SCCS(=O)(=O)Cc2ccc(Cl)cc2)n1,0.643%
5,CCOC(=O)C1=CSC2=NS(=O)(=O)CCN12,7.89%
6,CN(C)CCCN(C(=O)c1cccs1)c1nc(-c2ccccc2)cs1,-72.8%
7,O=C(O)C1CCCN1S(=O)(=O)c1ccc2[nH]c(=O)c(=O)[nH]c2c1 (stereo not drawn),9.17%
8,O=C(CSc1nnc(CNc2ccccc2)o1)N1CCN(C(=O)c2ccco2)CC1,-17.3%
9,CCOC(=O)N1CCC(N(CCOC)C(=O)Nc2ccc(Cl)cc2)CC1,-43%
10,NC(=O)N1c2ccccc2C=Cc2ccccc21,6.93%
11,CCN(CC)CC(C)CNC(=O)CC(C(=O)N1CCc2ccccc21)n1ccnc1 (stereo not drawn),2.03%
12,COc1ccc(C(CC(=O)N2CCCCC2)c2c(OC)cc(OC)c3c(-c4ccccc4)cc(=O)oc23)cc1 (stereo not drawn),0.849%
13,COC(=O)c1cc(C(=O)OCC(=O)N(C)c2ccccc2)cc([N+](=O)[O-])c1,-19.5%
14,COc1ccc(N2CCN(c3oc(-c4ccco4)nc3C#N)CC2)cc1,-47.9%
15,Cc1ccc(N(CCC#N)C(=O)COC(=O)C2=COCCO2)cc1,2.46%
16,Cc1ccc(-c2nc3ccccn3c2NC(=O)c2ccco2)cc1,-12%
17,Cc1ccc(S(=O)(=O)N2C(=O)CCC2C(=O)N2CCN(C)CC2)cc1 (stereo not drawn),0.859%
18,CCc1ccc(C(C)NC(=O)/C(C#N)=C\c2cn[nH]c2-c2ccccc2)cc1 (stereo not drawn),-1.91%
19,Cc1cc(NC(=O)CSc2nnc(-c3ccc(Cl)s3)o2)no1,5.01%

row,Compound,"hERG current change (%, negative = inhibition) at 10uM"
1,O=C(NS(=O)(=O)Oc1cccc(F)c1)OC[C@@H]1CCCN2CCCCC12 (stereo partly drawn),15.7%
2,COc1ccc(C(=O)O/N=C(/c2ccccc2)c2ccncc2)cc1,29.8%
3,Nc1ccc(NC(=O)CCN2CCOCC2)cc1,9.85%
4,COc1ccc(C(=O)NCC(=O)N2CCCC(C)C2)cc1OC (stereo not drawn),12.6%
5,O=C(NCc1ccco1)c1ccccc1Br,7.63%
6,O=C(Nc1nccs1)C1CCN(S(=O)(=O)c2c(Cl)cccc2Cl)CC1,-22.1%
7,O=C(c1ccc([N+](=O)[O-])cc1)N(Cc1ccccc1)c1ccccn1,3.04%
8,Cc1ccc(OCC(=O)N/N=C\c2cccn2C)c([N+](=O)[O-])c1,-8.65%
9,Cc1ccc2c(c1)c1c(n2CC(O)CNC(CO)(CO)CO)CCCC1 (stereo not drawn),0.531%
10,COC(=O)N/N=C/c1cc(Cl)c(OCc2ccccc2F)c(OC)c1,6.02%
11,Cc1nc([N+](=O)[O-])c(Br)n1CC(=O)c1ccc(Cl)cc1,-18%
12,CC(C)(C)C(=O)NC(=S)Nc1cc(C(F)(F)F)ccc1N1CCOCC1,-1.98%
13,CC1CCC(NC(=O)c2cc(S(=O)(=O)N3CCCCC3)c[nH]2)CC1 (stereo not drawn),-9.4%
14,O=C(c1cc(-c2ccc(Cl)cc2)n(-c2ccc(Cl)cc2Cl)n1)N1CCOCC1,-79.6%
15,Cc1cc(NS(=O)(=O)c2ccc(NC(=O)c3cc4cc(Br)ccc4oc3=O)cc2)no1,6.17%
16,O=C(O)C1C(C(=O)Nc2ccc(Cl)cc2)C2C=CC1C21CC1 (stereo not drawn),7.32%
17,NS(=O)(=O)c1ccc(N=Nc2ccc(=O)[nH]c2O)cc1,18.4%
18,Cc1ccc(S(=O)(=O)Nc2ccc3c(c2)CCC3)cc1C,-3.9%
19,CCN(CC)S(=O)(=O)c1ccc(C(=O)NCc2ccc3[nH]c4c(c3c2)CCCC4)cc1,15.3%
